# Among all 52,000 compounds or so, about 4,300 (8.3%) were called active. No stated cut-off is given here; in the data, active means survival mostly below about 52% (no sharp cut-off); inactive means mostly above about 56%. Some of the results follow.
# Test system: DeltatarO mutant
# Assay: growth inhibition of S. aureus wild type versus tarO mutant, primary screen, teichoic acid synthesis inhibitors, RN4220, OD600 (AID 463173)
# Conditions: OD600, 18 h, hits give low values, screened at 18.75 µg/mL (by protocol)
row,Structure (SMILES),survival
1,COc1cc(C(=O)NCc2nc3cccnc3n2Cc2ccc(C)cc2)cc(OC)c1OC,inactive: 88%
2,O=C(NCc1ccc(Cl)cc1)C1CCN(S(=O)(=O)c2ccccc2)CC1,inactive: 131%
3,COc1ccc(N(C(=O)c2ccccc2)S(=O)(=O)c2ccc3c(c2)n(C)c(=O)n3C)cc1,inactive: 89%
4,Cc1ccc(-n2c(=O)c3c(C)c(C)sc3n(Cc3ccc(F)cc3Cl)c2=O)cc1C,active: 38%
5,CN(C(=O)c1cc2nc(-c3ccco3)cc(C(F)(F)F)n2n1)C12CC3CC(CC(C3)C1)C2,inactive: 110%
6,COc1ccc(CCNC(=O)Cc2c(C)c3cc4c(C)coc4cc3oc2=O)cc1OC,inactive: 89%
7,Oc1ccc(-c2nc3ccc(Cl)cn3c2Nc2ccc3c(c2)OCO3)cc1,inactive: 106%
8,CCOc1ccc(C2C(=O)N(C3CCCCC3)CC(=O)N2CCc2ccccc2)cc1OC (centres undefined),inactive: 86%
9,CC1CCN(C(=O)C(C)NCc2ccc(F)cc2)CC1 (centres undefined),inactive: 98%
10,CC(NC(=O)c1ccc(F)cc1)c1nc2ccccc2[nH]1 (centres undefined),inactive: 83%
11,CCc1ccc(NC(=O)Cn2c(=O)n(-c3cc(OC)c(OC)c(OC)c3)c(=O)c3ccccc32)cc1,inactive: 72%
12,Cc1cc(C(=O)C(=O)Nc2nncs2)c(C)n1-c1ccc(Cl)cc1,inactive: 83%
13,COc1ccccc1NC(=O)c1cn(-c2ccccc2)nc1-c1ccccc1,inactive: 95%
14,Cc1cccc(N2CCN(C(=O)c3noc4c3CCCCC4)CC2)c1C,inactive: 107%
15,N#Cc1nc(/C=C/c2ccc(F)cc2)oc1NCc1ccc(F)cc1,inactive: 72%
16,COc1ccc(N2CCN(C(=O)CNS(=O)(=O)c3ccc(Br)s3)CC2)cc1,active: 32%
17,O=C(c1ccc2c(c1)N(Cc1cccc(Cl)c1)C(=O)c1ccccc1S2=O)N1CCN(c2cccc(C(F)(F)F)c2)CC1 (centres undefined),inactive: 92%
18,O=C(N=Nc1[nH]c2ccccc2c1O)c1ccc(Cl)cc1,inactive: 85%
19,Cc1ccc(N(C)C(=O)CN2C(=O)CCc3cc(S(=O)(=O)N4CCOCC4)ccc32)cc1,inactive: 67%
20,COc1ccccc1CNC(=O)CCn1cnc2ccccc2c1=O,active: -5%
21,O=C(NC1CC(=O)N(c2ccc(F)cc2)C1)c1ccc2c(c1)OCO2 (centres undefined),inactive: 75%
22,O=C(Cn1c(=O)n2nc(-c3cccc(F)c3)nc2c2ccccc21)N1CCN(c2ccc(F)cc2)CC1,inactive: 90%
23,Cn1c(=O)c2c(ncn2Cc2ccc(Cl)cc2)n(C)c1=O,inactive: 63%

row,Structure (SMILES),survival
1,CCN1CCN(C(c2ccccc2Cl)c2c(O)cc(C)n(Cc3ccco3)c2=O)CC1 (centres undefined),inactive: 101%
2,CCN(c1ccccc1)c1nnc(NC(=O)Nc2ccc(Br)c(C)c2)s1,inactive: 89%
3,O=C(c1ccc2c(Cl)c3c(nc2c1)CCCC3)N1CCN(c2cccc(C(F)(F)F)c2)CC1,inactive: 64%
4,O=C(CSc1nccn1Cc1ccco1)Nc1cc(C(F)(F)F)ccc1Cl,inactive: 99%
5,COc1cc(S(=O)(=O)N(CCc2ccccc2)Cc2cccs2)ccc1-n1cnnn1,inactive: 91%
6,O=C(CN1C(=O)COc2ccc(S(=O)(=O)N3CCCCCC3)cc21)N1CCN(c2ccccc2F)CC1,inactive: 81%
7,CCOc1ccc(CNC(=O)CCS(=O)(=O)c2cc3c4c(c2)CCN4C(=O)CC3)cc1OC,inactive: 82%
8,O=C(CNC(=O)c1ccc(F)cc1)OCc1cc(=O)n2nc(C3CCCCC3)sc2n1,inactive: 80%
9,CCOc1cc(CNC(=O)c2ccc3c(c2)N(C)C(=O)C2CCCCN32)ccc1OC (centres undefined),inactive: 69%
10,CCOc1ccccc1C(=O)NCc1nc2cccnc2n1Cc1ccc(C)cc1,inactive: 119%
11,COc1ccc(NC(=O)C2C3C=CC(O3)C2C(=O)NCc2cccnc2)cc1 (centres undefined),inactive: 80%
12,Cc1ccc(-n2ncc3c(NC4CCCCC4)ncnc32)cc1Cl,inactive: 84%
13,Cc1ccc(N2CCN(C(=O)c3cnn(-c4ccc(C)c(C)c4)c3C3CCNCC3)CC2)c(C)c1,inactive: 55%
14,COc1ccc(CNC(=O)CCCn2nc(C)c3c(C)n(-c4ccc(C)cc4)nc3c2=O)cc1OC,inactive: 74%
15,CCc1ccc(Nc2sc(C(=O)c3ccc(F)cc3)c(N)c2S(=O)(=O)c2ccccc2)cc1,inactive: 94%
16,Nc1nnc(SCC(=O)NC2CCCCC2)s1,inactive: 88%
17,Nc1c(C(=O)NCc2ccc(Cl)cc2)sc2nc(-c3ccc(F)cc3)ccc12,inactive: 69%
18,COc1ccc(NCc2nnc(SCC(=O)c3ccc(C)cc3)o2)cc1,inactive: 85%
19,COc1ccc(OC)c(NC(=O)CCNS(=O)(=O)c2ccc3c(c2)oc(=O)n3C)c1,inactive: 83%
20,COc1ccc2nc(NC(=O)c3cc(=O)c4cc(C)cc(C)c4o3)sc2c1,inactive: 69%
21,COc1cc(OC)c(NC(=O)C2CCN(S(=O)(=O)c3ccc4c(c3)oc(=O)n4C)CC2)cc1Cl,inactive: 99%
22,COc1ccc2c(CNCCc3cccs3)c(C(=O)O)n(Cc3cccc(F)c3)c2c1,inactive: 76%
23,CC(C)C(=O)N1CCC(c2nc(-c3ccc(F)cc3)no2)CC1,inactive: 105%

row,Structure (SMILES),survival
1,COc1ccc(CCNC(=O)c2cc3c(=O)oc4ccc(C)cc4c3s2)cc1OC,inactive: 60%
2,COc1ccc(CC(=O)NC2CCN(CC(=O)c3ccc(F)cc3)CC2)cc1OC,inactive: 108%
3,CCNC(=O)c1cc2n(n1)CCCN(Cc1ccc(C)cc1)C2=O,inactive: 49%
4,O=C(C1CCN(c2ncnc3c2nc2n3CCCCC2)CC1)N1CCN(c2ccc(Cl)cc2)CC1,inactive: 81%
5,Cc1nn(C(=O)c2cccc(F)c2)c(C)c1S(=O)(=O)N1CCOCC1,inactive: 84%
6,Cc1ccc2c(c1)c1c3n2CCN(C(=O)c2ccc(C(F)(F)F)cc2)C3CCC1 (centres undefined),inactive: 44%
7,Cc1ccccc1-c1nnc(N(C)C(=O)C2CC2)s1,inactive: 64%
8,CC1=C(C(=O)OCc2ccc(C)cc2)C(c2cccc(F)c2F)CC(=O)N1 (centres undefined),inactive: 93%
9,CC(=O)c1cccc(NC(=O)Cn2nc(C(F)(F)F)c3c2CCC3)c1,inactive: 84%
10,CC(C)C(=O)Nc1ccc(-c2cn3ccccc3n2)cc1,inactive: 76%
11,NC(=O)c1nn2c(C(F)(F)F)cc(-c3ccc(Br)cc3)nc2c1Cl,inactive: 81%
12,O=C(Cn1c(C(=O)N(Cc2ccco2)CC2CCCO2)cc2sccc21)c1ccccc1 (centres undefined),active: 68%
13,CSc1nc(=O)c2c(n1C)NC(=O)CC2c1cc(F)cc(F)c1 (centres undefined),inactive: 44%
14,c1coc(C2Nc3cccc4cccc(c34)N2)c1,inactive: 74%
15,Cc1ccc2nc(Cl)c3cc(C(=O)NCCCN(C)Cc4ccccc4)sc3c2c1,active: -9%
16,Cc1ccc(NC(=O)c2c(NC(=O)c3ccccc3Cl)sc3c2CCC3)cc1,inactive: 160%
17,COc1ccc(Nc2cc(C(=O)NC3CCCC3)c3ccccc3n2)cc1,inactive: 90%
18,COc1ccc(C2C=C(c3ccc(Br)cc3)Nc3nnnn32)c(OC)c1 (centres undefined),inactive: 84%
19,COc1ccccc1CNc1nc2c(S(=O)(=O)c3ccccc3)nnn2c2ccc(Cl)cc12,inactive: 64%
20,O=C(CCSCc1ccc(Cl)cc1)NCc1ccc(F)cc1Cl,inactive: 88%
21,CS(=O)(=O)N1CCc2cc(C(=O)N3CCN(c4ccccc4F)CC3)ccc21,inactive: 45%
22,O=C(CSc1nccn1Cc1ccc(F)cc1)NCc1ccc(F)cc1,inactive: 71%
23,COC(=O)/C=c1\sc2nc(N)nn2c1=O,inactive: 90%

row,Structure (SMILES),survival
1,Cc1cc(C)c(NC(=O)c2c(C)nn(-c3ccc(F)cc3)c2-n2cccc2)c(C)c1,inactive: 76%
2,CN1CCN(C(=O)Cn2ncc3c4ccccc4n(Cc4ccc(Cl)cc4)c3c2=O)CC1,inactive: 61%
3,Cc1ccccc1NC(=O)Cn1nnc(C(=O)NCCc2ccccc2)c1N,inactive: 80%
4,CCc1nn2c(=O)c(S(=O)(=O)Nc3ccc(Br)cc3F)c(C)nc2s1,inactive: 57%
5,O=C(NC1CCCCC1)c1ccc(CSc2nc3ccncc3n2Cc2ccc(F)cc2)cc1,inactive: 61%
6,CN(C)c1ccc(Nc2nc3ccccc3n3nnnc23)cc1,inactive: 88%
7,COc1ccccc1-c1nn2c(=O)cc(CN3CCN(C(=O)/C=C/c4ccccc4)CC3)nc2s1,inactive: 71%
8,COc1cccc(CNC(=O)CN2C(=O)N(c3cccc(Cl)c3)S(=O)(=O)c3ccccc32)c1OC,inactive: 72%
9,COc1ccc(N2CCN(S(=O)(=O)c3ccc(-c4cnc(C5CC5)o4)cc3)CC2)cc1,inactive: 78%
10,CC1=C(C(=O)Nc2ccc(C)cc2C)C(c2ccc(Br)cc2)n2ncc(C(=O)Nc3cccc(C)c3)c2N1 (centres undefined),inactive: 128%
11,COc1ccccc1CNC(=O)CSc1nc(=O)[nH]c2c1CCC2,inactive: 78%
12,Cc1ccc(C)c(N(C)C(=O)Cc2c(C(=O)O)[nH]c3ccc(Cl)cc23)c1,active: 40%
13,CC(C)(C)CC(C)(C)c1ccc(OCC(=O)Nc2ccc(S(=O)(=O)Nc3ncccn3)cc2)cc1,inactive: 62%
14,CC(=O)Nc1ccc(Oc2nc(C)cc(C)n2)cc1,inactive: 89%
15,COc1ccc(C2C(C(=O)Nc3ccc(C)cc3C)=C(C)Nc3nc(SCc4cccc(C)c4)nn32)c(OC)c1 (centres undefined),inactive: 164%
16,OC(CN1CCNCC1)Cn1c2ccccc2c2ccccc21 (centres undefined),inactive: 84%
17,Cc1ccccc1Cn1c(=O)n(CC2CCC(C(=O)N3CCOCC3)CC2)c(=O)c2sccc21 (centres undefined),inactive: 82%
18,Cc1c(Cl)cccc1Nc1nn2c(=O)c3ccc(C(=O)NCCC4=CCCCC4)cc3nc2s1,inactive: 80%
19,Cc1cc(C)c(S(=O)(=O)N2CCN(Cc3ccc4c(c3)OCO4)CC2)cc1C,active: 13%
20,CCN(CC)S(=O)(=O)c1cccc(C(=O)Oc2cccnc2)c1,inactive: 63%

# Reference: PubChem BioAssay AID463173 (ICCB-Longwood Screening Facility, Harvard Medical School, 2010)
